Assay results from PubChem BioAssay AID488969 (Vanderbilt High Throughput Screening Facility, 2010).
In all, about 110,000 compounds were measured (“z-score”: median about -0.1, highest 2% from about 2 on). This is one part of the list. Active and inactive are the calls of the source.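 Rule for the calls: active = z-score in the third read window above 3 or below -3; inactive = the rest.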

Molecular target: Metabotropic glutamate receptor 8 (Rattus norvegicus) (UniProt P70579)
Assay: rat mGluR8 modulators via GIRK flux, primary screen, cell-based, thallium flux, HTS (AID 488969)
Conditions: HEK293 rat mGluR8, GIRK (G protein-gated inwardly rectifying potassium channel) thallium flux, FluoZin2; at 10 µM; stronger effect = higher value; submaximal glutamate (EC20) added with thallium

Sequence of UniProt P70579 (P70579 whole entry, looked up): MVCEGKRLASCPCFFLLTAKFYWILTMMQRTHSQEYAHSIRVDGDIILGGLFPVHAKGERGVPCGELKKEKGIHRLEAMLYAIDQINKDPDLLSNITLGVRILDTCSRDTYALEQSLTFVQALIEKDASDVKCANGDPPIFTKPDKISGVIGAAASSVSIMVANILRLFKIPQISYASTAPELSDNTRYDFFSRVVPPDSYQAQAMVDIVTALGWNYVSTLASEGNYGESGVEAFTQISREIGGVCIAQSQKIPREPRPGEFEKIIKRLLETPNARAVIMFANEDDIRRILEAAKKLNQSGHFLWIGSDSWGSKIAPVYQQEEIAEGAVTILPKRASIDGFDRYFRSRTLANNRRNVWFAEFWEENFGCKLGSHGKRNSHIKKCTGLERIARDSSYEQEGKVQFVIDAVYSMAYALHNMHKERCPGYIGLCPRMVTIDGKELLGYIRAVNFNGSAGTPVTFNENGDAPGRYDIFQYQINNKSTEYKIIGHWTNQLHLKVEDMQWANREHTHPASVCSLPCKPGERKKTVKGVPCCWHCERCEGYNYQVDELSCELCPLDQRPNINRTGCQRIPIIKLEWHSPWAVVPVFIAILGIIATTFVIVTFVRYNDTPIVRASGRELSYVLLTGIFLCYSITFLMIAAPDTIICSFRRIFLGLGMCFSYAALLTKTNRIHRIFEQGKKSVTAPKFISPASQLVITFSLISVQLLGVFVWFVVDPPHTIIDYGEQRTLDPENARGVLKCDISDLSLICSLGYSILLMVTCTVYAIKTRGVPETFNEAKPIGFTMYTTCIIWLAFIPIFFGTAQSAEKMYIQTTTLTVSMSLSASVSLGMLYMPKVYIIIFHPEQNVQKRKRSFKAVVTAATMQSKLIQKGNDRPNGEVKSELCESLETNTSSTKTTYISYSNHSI

| SMILES | z-score |
| --- | --- |
| Cc1ccc(C)n1NC(=O)c1ccccc1 | 0.00747 |
| COc1ccc2[nH]c(=O)c(CN(C(C)=O)C3CCCCC3)cc2c1 | -0.00398 |
| Cc1nc(N2CCCCC2)c2sc(=S)n(C)c2n1 | 0.0149 |
| CCOC(=O)c1sc2nccc(N(C)C)c2c1N=CNOC | -0.245 |
| O=C(NCC1CCN(c2ccc(S(=O)(=O)N3CCOCC3)cc2)CC1)c1ccc(Cl)cc1 | -0.78 |
| COc1ccc2nc(NC(=O)CCc3nc(-c4ccccc4F)no3)sc2c1 | -0.0808 |
| CCOC(=O)c1c(NC(=O)c2nn(CC)cc2Br)sc(C)c1C | -0.0607 |
| Cc1cc(=O)n2[nH]c(-c3ccc(F)cc3)cc2n1 | -0.25 |
| Cc1ccccc1OCCN1C(=O)NC2(CCCc3ccccc32)C1=O (stereo unspecified) | 0.127 |
| COc1cc(Cc2nc3ccc(S(=O)(=O)N4CCOCC4)cc3[nH]2)cc(OC)c1OC | -0.253 |
| Cc1ccc(Cl)cc1Nc1nc(-c2sc(NC(=O)c3ccccc3)nc2C)cs1 | 0.131 |
| CCOC(=O)C(Cc1ccccc1)NC(=O)CCc1c(C)nc2nc(C)nn2c1C (stereo unspecified) | -0.164 |
| CCOC(=O)C1CCN(c2c(NC3CCCc4ccccc43)c(=O)c2=O)CC1 (stereo unspecified) | -0.182 |
| O=C(CSc1cccc2cccnc12)OCC(=O)c1ccc(Br)cc1 | -0.113 |
| COCc1cc(C)nc(NCCc2ccccc2)c1C#N | -0.235 |
| CCC(Sc1ncccn1)C(=O)Nc1cc(C)on1 (stereo unspecified) | -0.0616 |
| CCCNCc1cc(Cl)c(OCC)c(Cl)c1 | 0.467 |
| CC(C)CCNC(=O)C(NS(=O)(=O)c1ccc2c(c1)c(=O)n(C)c(=O)n2C)c1ccccc1 (stereo unspecified) | -0.127 |
| COC(=O)c1[nH]c2ccc(C)cc2c1NC(=O)NC1CCCCC1 | -0.116 |
| Cc1cc(/C=N\NC(=O)CC(=O)NC2CCCCC2)c(C)n1-c1ccc(Cl)cc1 | 1.21 |
| CCOc1ccccc1C(=O)Nc1nncs1 | -0.106 |
| Cc1ccc(NC(=O)N2C(=O)C3(OCCO3)c3ccccc32)cc1 | -0.237 |
| Cc1cc(NC(=O)CSCC(=O)N(c2ccc(F)cc2)C(C(=O)NC2CCCCC2)c2ccc(O)c(O)c2)no1 (stereo unspecified) | -0.0976 |

| SMILES | z-score |
| --- | --- |
| O=C(c1ccc(F)cc1)N1CCN(c2ncccn2)CC1 | -0.204 |
| Cc1ccc(-n2c(=O)c3sccc3n(Cc3cc(=O)n4cc(Cl)ccc4n3)c2=O)cc1F | -1.59 |
| O=C(O)CCC(=O)NCc1cn(-c2ccccc2)nc1-c1cccc(Br)c1 | -1.36 |
| O=C(NCCN1CCOCC1)c1ccc(F)cc1 | 0.0457 |
| CCOc1cc(C(=S)N2CCN(C)CC2)ccc1OCC(=O)N1CCOCC1 | -0.0898 |
| CCCCCCc1nc2ccccc2c(=O)n1NC(=O)c1c(O)c2cccc3c2n(c1=O)CCC3 | 0.688 |
| C=CCOC(=O)C1C(=O)CC(C)(O)C(C(=O)OCC=C)C1c1ccc(OCC)cc1 (stereo unspecified) | -0.0991 |
| O=C(CN1CCOc2ccccc21)NCc1ccco1 | -0.167 |
| Cc1ccccc1N1CCN(S(=O)(=O)c2ccccc2)CC1 | -0.44 |
| COC(=O)c1cc2oc(C)cc2n1CC(=O)N(C)c1ccccc1 | 0.244 |
| CCN(CC)S(=O)(=O)c1ccc(NC(=O)c2ccccc2N(C)S(C)(=O)=O)cc1 | -0.192 |
| CC1(C(=O)O)CCC(C(=O)NC2CCCCCC2)C1(C)C (stereo unspecified) | -0.335 |
| CCn1c(=O)cc(C(=O)OC)sc1=Nc1ccc(F)c(F)c1 | -0.202 |
| N#CC(C(=O)NCCc1ccccc1)c1nc2ccccc2nc1N1CCOCC1 (stereo unspecified) | 0.253 |
| CCc1nnc(NC(=O)C2Cc3ccccc3CN2S(=O)(=O)c2c(C)c(C)cc(C)c2C)s1 (stereo unspecified) | -0.206 |
| Nc1c(C(=O)Nc2ccc(Cl)c(Cl)c2)sc2nc(-c3cccnc3)ccc12 | -0.44 |
| O=Cc1c(Sc2ccccc2)nc2ccccn2c1=O | -0.861 |
| Cc1cnc(C(=O)Nc2ccccc2C(=O)N2CCOCC2)cn1 | 0.343 |
| O=C(Nc1cccc(Cl)c1Cl)c1ccc(-c2ccccc2)cc1 | 0.219 |
| Cc1ccc(O)c(/C=N/NC(=O)c2[nH]ncc2Br)c1 | -0.036 |
| COc1ccc(-n2c(=S)[nH]c3c(oc4ccccc43)c2=O)cc1 | 0.609 |
| O=C1NC2C(NC(=O)N2C2CCCCC2)N1C1CCCCC1 (stereo unspecified) | -0.902 |
| O=C(Nc1nnc(-c2ccccc2Cl)o1)c1ccco1 | 0.121 |

| SMILES | z-score |
| --- | --- |
| COc1cc(S(=O)(=O)N(Cc2ccccc2)Cc2ccccn2)ccc1-n1cnnn1 | -0.0596 |
| CCOc1cc(S(=O)(=O)NC2CCCCCC2)ccc1F | 0.581 |
| CC1(C)C(c2cccs2)=[N+]([O-])C2(CCCCC/C2=N\NC(N)=S)N1O (stereo unspecified) | 0.131 |
| Cc1ccc(Cn2c(CN3CC(C)OC(C)C3)nc3c2c(=O)[nH]c(=O)n3C)cc1 (stereo unspecified) | 0.0226 |
| CC(C)NCCOCCOc1ccccc1F | 0.394 |
| O=C(c1cc2ccccc2c(=O)o1)N1CCc2ccccc2C1 | -0.143 |
| C/C(CC(=O)Nc1ccc(N(C)C)cc1)=N\NC(=O)c1ccccn1 | -0.921 |
| CSc1ccc(/C=N/NC(=O)COc2ccc(Br)cc2Cl)cc1 | -0.214 |
| Cc1nc(Cl)c2oc3ccccc3c2n1 | -1.14 |
| O=C1CCC(=O)N1c1ccccc1-c1ccccc1 | 0.624 |
| COc1ccccc1-c1nnc(SCC(=O)NC2CCS(=O)(=O)C2)n1CCc1ccccc1 (stereo unspecified) | 0.0681 |
| COc1cc2c(cc1NC(=O)CSc1nnc(Cc3cccs3)n1C)oc1ccccc12 | -0.294 |
| O=C(Nc1ccc2nn(-c3ccccc3)nc2c1)c1ccco1 | -0.129 |
| CC(C)CCOc1ccc(NC(=O)C2OC3OC(C)(C)OC3C3OC(C)(C)OC23)cc1 (stereo unspecified) | -0.118 |
| CC1CCCCC1NC(=O)C1CCN(C(=O)NC2CCCCC2)CC1 (stereo unspecified) | -0.407 |
| Cn1nc(C(=O)NC(C)(C)C)c2ccccc21 | -0.198 |
| Cc1cc(C)c(C#N)c(OCC(=O)c2ccc(Br)cc2)n1 | -0.91 |
| CC(C)CNC(=O)NC(=O)COC(=O)c1ccccc1Sc1ccc(C(F)(F)F)cc1[N+](=O)[O-] | -0.438 |
| Oc1ccccc1Oc1ncc(Br)c(N2CCOCC2)n1 | -1.71 |
| CCCCNC(=O)C(=O)N/N=C/c1ccc(OCC(=O)Nc2cccc(OC)c2)c(OC)c1 | -0.318 |
| CN(C)c1ccc(/C=N\NC(=O)c2csnn2)cc1 | -0.0845 |
| COc1cccc(OC)c1OCCCOc1c(OC)cccc1OC | -0.355 |
| COc1ccc2[nH]cc(C(=O)CN3CCCCC3C)c2c1 (stereo unspecified) | 0.245 |

| SMILES | z-score |
| --- | --- |
| CN(C)CCNC(=S)Nc1ccc(Cl)cc1 | 0.352 |
| CCOc1ccc(/C=C2\SC(=O)N(CCNC(=O)C3COc4ccccc4O3)C2=O)cc1OC (stereo unspecified) | -0.337 |
| O=C(NCCCN1CCCC1)c1ccc(CS(=O)(=O)c2ccc(Br)cc2)o1 | 0.0223 |
| O=C(Nc1ccccc1N1CCCCC1)c1ccc(F)cc1 | -0.361 |
| O=C(CCC(=O)OCC(=O)c1ccc([N+](=O)[O-])cc1)NC1CCCCC1 | 0.265 |
| Cc1ccc(/C=N/Nc2nc(Cl)c(Cl)cc2Cl)s1 | active: 3.84 |
| O=C(COc1ccccc1)NCc1ccccc1 | -0.312 |
| CCOC(=O)C1=C(C)NC(=O)NC1c1cc(C)sc1C (stereo unspecified) | -0.568 |
| Cc1ccccc1OCC(=O)Nc1ccccc1N1CCOCC1 | 0.605 |
| COc1ccc(Nc2nc(N)nc(CSC(=S)N3CCC(C)CC3)n2)cc1 | -0.0611 |
| C1=C(CCNC2=NCCCCC2)CCCC1 | -1.17 |
| CC1CCCC(C)N1C(=O)c1cccc2c1-c1ccccc1/C2=N/O (stereo unspecified) | 0.252 |
| COc1ccc(C2=NN(C(C#N)c3ccc(OC)cc3)C(c3ccccc3)C2)cc1 (stereo unspecified) | 0.17 |
| CCN1CCCC1CNCc1cc(OC)c(OC)c(OC)c1 (stereo unspecified) | -0.258 |
| CCOC(=O)CCS(=O)(=O)c1ccc(-c2ccc(S(=O)(=O)CCC(=O)OCC)cc2)cc1 | 0.172 |
| Cc1nc2ccccc2c(=O)[nH]1 | -0.21 |
| Cc1cc(=O)oc2cc(OCC(=O)N/N=C/c3ccccc3[N+](=O)[O-])ccc12 | -0.0875 |
| COc1ccc(-c2cc(C(=O)N3CCN(c4ccccc4)CC3)c3ccccc3n2)cc1OC | -0.469 |
| N#CC1=C(N)N2C(=C(C#N)C1c1cccc(Br)c1)Nc1ccccc12 (stereo unspecified) | -0.247 |
| COc1cc(OC)c(C2C(C(=O)Nc3ccc(C)cc3C)=C(C)Nc3ncnn32)cc1OC (stereo unspecified) | -0.313 |
| O=C(NCc1cccc(Cl)c1)c1ccco1 | 0.49 |
| O=C(CSc1nnc(NC(=O)C2CCC2)s1)Nc1ccc(N2CCOCC2)cc1 | -0.322 |
| Cc1ccc(CNn2cnnc2SCC(=O)NC(C)(C)C)cc1 | 0.231 |

| SMILES | z-score |
| --- | --- |
| O=C1NC(c2ccc3c(c2)OCO3)Nc2ccccc21 (stereo unspecified) | 0.0106 |
| O=C(NCc1cccs1)C1CCCN1S(=O)(=O)c1ccccc1F (stereo unspecified) | 0.638 |
| CC(C)OCCCNc1nc2c(c(=O)n(Cc3ccccc3F)c(=O)n2C)n1C | -0.455 |
| COc1cc(/C=N/NC(=O)c2cc3ccccc3cc2O)ccc1OCCN1CCCCC1 | -0.0725 |
| O=C(OCCN1CCOCC1)c1ccc2c(c1)OCCO2 | 0.587 |
| O=C(c1ccccc1)N1CCN(c2ccc(Cl)cc2)CC1 | -0.0255 |
| COc1cc(NS(=O)(=O)c2ccc(NC(=S)NC(=O)CC(C)C)cc2)nc(OC)n1 | 0.0151 |
| Cc1ccc(S(=O)(=O)N(C)/C(=N/S(=O)(=O)c2ccccc2)c2ccccc2)cc1 | -0.162 |
| Cc1nn2c(N3CCCC3)cc(C(C)C)nc2c1-c1ccccc1 | -0.954 |
| Cc1ccc(C2c3c(oc4ccccc4c3=O)C(=O)N2CCCN2CCOCC2)o1 (stereo unspecified) | 0.634 |
| COc1cccc(-c2nc(CS(=O)(=O)CC(=O)N3CCN(C)CC3)c(C)o2)c1 | 0.772 |
| CC(C)Cn1c(-c2cccs2)nc2ccccc21 | -0.0473 |
| NC(=O)c1ccc[n+](Cc2cccc3ccccc23)c1 | 0.0662 |
| CC1CCCCN1CCNC(=O)C1CCN(S(=O)(=O)c2cccc3cccnc23)CC1 (stereo unspecified) | 0.0318 |
| Cc1ccc(CNC(=O)c2cc3c(-c4ccc(Cl)cc4)nn(C)c3s2)o1 | -0.335 |
| COc1cccc(NC(=O)COc2ccc(N3CC(C(=O)NCC(C)C)CC3=O)cc2)c1 (stereo unspecified) | 1.32 |
| Cc1nn(CCCC(=O)NCc2ccc(F)cc2)c(C)c1[N+](=O)[O-] | -0.182 |
| O=C(C1CCCN(S(=O)(=O)c2cnc[nH]2)C1)N1CCN(Cc2ccccc2)CC1 (stereo unspecified) | 0.522 |
| CCCCOC(=O)Nc1ccc(C(=O)OCCC)cc1 | active: 3.09 |
